Values marked as one replicate rest on one cluster of the flow cell; about a third of the high ones do not repeat.
The sequences below were run on ATP (assay: switch fluorescence ratio, 500 uM ATP over buffer (Cy3 cluster intensity, sum of 5 cycles each) (fold (ratio)); higher = stronger signal-on switching upon ATP binding; sequences stand for … in TCGTCGGCAGCGTCAGATGTGTATAAGAGACAGTTTTTTTTTTTTTTTTTTTTTTTTT…TC). Details: aptamer strand: ATP DNA aptamer (quencher-CACCTGGGGGAGTATTGCGGAGGAAGG + anchor), 100 nM annealed; ATP concentration: 500 uM; one replicate.
In short: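 Switching-strand clusters labelled with Cy3 on a modified Illumina MiSeq flow-cell were annealed to 100 nM quencher-labelled ATP aptamer, imaged in selection buffer, and re-imaged after 15 min with 500 uM ATP at 22 °C. This was done over five cycles with NaOH stripping and re-annealing in between. The fluorescence ratio is summed target-cycle over summed buffer-cycle Cy3 intensity per cluster, averaged per switch-domain sequence, excluding clusters outside 100-1000 RFU.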
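Further: ATP exposure 15 min at 22 °C before imaging.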

Sequence | switch fluorescence ratio
ACGGTCGCCG | 1.01
ACGGTCGTTT | 0.985
ACGGTCTCAC | 1.09
ACGGTGACAA | 1.11
ACGGTGCAAA | 1.24
ACGGTGCGAT | 1.08
ACGGTGGGTT | 0.982
ACGGTTAGAT | 1.04
ACGGTTCTCA | 0.995
ACGGTTGGAC | 1.07
ACGGTTGGC | 1.01
ACGGTTTAGT | 0.998
ACGTAAAGA | 1.06
ACGTAAGATT | 1.11
ACGTAGATCG | 1
ACGTAGTTGC | 1.07
ACGTCCCTGT | 1.01
ACGTCGTGTA | 1.01
ACGTGAGGGG | 1.06
ACGTGATCCG | 1.01
ACGTGCGGCG | 0.928
ACGTGGGACC | 0.976
ACGTGGTCAG | 1.03
ACGTGTATCT | 1.05
ACGTGTCATG | 1.01

Sequence | switch fluorescence ratio
ACGTGTCGGC | 1.02
ACGTGTTTAC | 1.11
ACGTTCACAC | 1.66
ACGTTCCGCC | 1.93
ACGTTGGTCG | 1
ACGTTGTGGT | 0.945
ACGTTTCGGG | 1
ACGTTTTGGG | 0.988
ACTAAAATTG | 0.962
ACTAAATCGT | 1.02
ACTAAATGAG | 1.02
ACTAAGGTGA | 1.19
ACTAATGAGC | 0.989
ACTACAAGTG | 1.05
ACTACCGCTG | 1.46
ACTACGCCTT | 2.11
ACTACTAA | 1.05
ACTAGAGGGC | 1.03
ACTAGCGGCA | 1
ACTATATAGT | 1.03
ACTATCGGAA | 1.29
ACTATCTGCT | 0.986
ACTATGAAGA | 1.03
ACTATGTGTC | 1.12
ACTATTAACA | 1.01

Sequence | switch fluorescence ratio
ACTCAACACC | 1.22
ACTCAGAAT | 1
ACTCAGACGC | 1.37
ACTCAGGTCA | 1.08
ACTCAGTTGG | 1.01
ACTCATCATG | 1.02
ACTCCAGGTC | 1.71
ACTCCCCCCA | 1.83
ACTCCCGCCG | 1.15
ACTCCTATCA | 1.09
ACTCCTCGGA | 1.11
ACTCCTTATG | 1.06
ACTCCTTTGT | 1.04
ACTCGAGTCG | 0.947
ACTCGGAGTT | 0.991
ACTCGGCCTT | 1.08
ACTCGGCTGG | 0.944
ACTCGGGGTA | 0.99
ACTCGGTCC | 1.07
ACTCGTGGAG | 1.01
ACTCTAGAC | 1.2
ACTCTATTCG | 1.08
ACTCTCGGCT | 1.07
ACTCTTGCTA | 1.3
ACTGAATAAC | 1.01

Sequence | switch fluorescence ratio
ACTGACAAAT | 1.24
ACTGACAGTC | 1.19
ACTGACATTT | 1.07
ACTGAGCTTT | 1.04
ACTGATGGTC | 0.989
ACTGCAGACG | 1.07
ACTGCATACC | 1.59
ACTGCCC | 1.08
ACTGCCGGGC | 0.996
ACTGCGATGG | 1.33
ACTGCGTATA | 1.06
ACTGCGTCAG | 0.998
ACTGCGTTTT | 0.972
ACTGGAAGAT | 1.05
ACTGGAATCT | 1.09
ACTGGACGAA | 1.06
ACTGGATGTG | 0.98
ACTGGATTCT | 0.977
ACTGGCGCTT | 1.03
ACTGGGAGAT | 1.02
ACTGGGATAA | 1.03
ACTGGGCAGT | 1.04
ACTGGGTGGG | 1.07
ACTGGTGCTT | 0.969
ACTGTAAGTA | 1.01

— the supplement of paper PMC10126150
